The RNAGym collection of RNA variant scans (doi:10.7554/elife.90254)
The source gives no read counts; variants with many changes may rest on few reads.

B1: LINE1-mini (parent)
chain: GGCAGAGCUCAACACAGCGUGGCAAAGUGGCUGUGGCUAGACUGCC

Variants of: B1
Assay: self-cleavage, relative activity (ratio to wild type); higher = more cleavage; in vitro, sequencing; the parent is a self-cleaving ribozyme
For GGCAGAGAUCAACACAGCGUGGCAAAGUGGCAGGGGCUAGACUGCC [C8A U32A U34G], the self-cleavage was 0.14.
GGCAGAGGUCAACACAGCGUGGCGAAGUGGCUGUGGCUUGACUGCG [C8G A24G A39U C46G] gave a self-cleavage of 0.
With GGCAGAGGUCAACACGGCGUGGCAAAGUGGCGGUGGCUAGACUGCC [C8G A16G U32G] the self-cleavage was 0.04.
For GGCAGAGGUCAACACUGCGUGUCAAAGUGGCUGUGGCUAGACUGCC [C8G A16U G22U], the self-cleavage was 0.03.
For GGCAGAGGUCAACAAAGCGUGGCAAAGUGACUGUUGCUAGACUGCC [C8G C15A G30A G35U], the self-cleavage was 0.04.
With GGCAGAGGUCAACAUAGCGUGGCAAAGUGGCUUUGGCUGGACUGCC [C8G C15U G33U A39G] the self-cleavage was 0.08.
For GGCAGAGGUCAACACUGCGAGGCAAAGUGGCUAUGGCUAGACUGCC [C8G A16U U20A G33A], the self-cleavage was 0.04.
GGCAGAGAUCAACACAGCGCUGCAAAGUGGCAGUGGCUAGACUGCC [C8A U20C G21U U32A] showed a self-cleavage of 0.13.
For GGCAGAGGUCAACAGAGUGUGGCAAAGUGGCUGUGGCUAGACUGCC [C8G C15G C18U], the self-cleavage was 0.02.
Work on GGCAGAGGUCAAGUAAGCGUGGCAAAGUAGCUGUGGCUAGAUUGCC [C8G C13G A14U C15A G29A C42U] yielded a self-cleavage of 0.03.
GGCAGAGGUCAACGCAACGUGGCAAAGUGGCUGUGGCUAGACUGAC [C8G A14G G17A C45A] gave a self-cleavage of 0.02.
With GGCAGAGGUCAACACAGCGUGGCAGAGUGGCUGUGGAUAGACUCCC [C8G A25G C37A G44C] the self-cleavage was 0.01.
With GGCAGAGGUCAACACAGCGUGGCAACGUGGCUGCGGCUAGACUGCC [C8G A26C U34C] the self-cleavage was 0.12.
GGCAGAGGUCAACCCAGCGUGGUAAAGUGGCUGUUGCUAGACUGCC [C8G A14C C23U G35U] gave a self-cleavage of 0.07.
Work on GGCAGAGACCAAGACAGCGUGGCAAACUGGCUGUGGCUAGACUGCC [C8A U9C C13G G27C] yielded a self-cleavage of 0.09.
Variant GGCAGAGACCAACACAGCGUGGCAAAGUGGCUGUGGCUCGACCCCC [C8A U9C A39C U43C G44C] has a self-cleavage of 0.01.
For GGCAGAGAUCAACACAGCGUGGCAAAGUGGCUGAGACUAGACUGCC [C8A U34A G36A], the self-cleavage was 0.08.
Variant GGCAGAGAUCAACACAGCGUGGCAAAGCGGCUGUGGCUAGACUGAC [C8A U28C C45A] has a self-cleavage of 0.12.
Work on GGCAGAGGUCAGCACAGCGUGGCUAAGUGGCUGUGGCUAUACUGCC [C8G A12G A24U G40U] yielded a self-cleavage of 0.
GGCAGAGGUCAACACAGCGUGGCACAGUGGCUGUGGCUCGACUGCC [C8G A25C A39C] showed a self-cleavage of 0.02.
GGCAGAGGUAAACACAGCGAGCCAAAGUGGCUGUAGCUAGACUGCC [C8G C10A U20A G22C G35A] showed a self-cleavage of 0.01.
For GGCAGAGGUCAACACCGCGUGGCAAAGUGGCUGUGUUUAGACUGCC [C8G A16C G36U C37U], the self-cleavage was 0.
With GGCAGAGGUCAAUACAGCGUGGCAACGUGGCUGUGUCUAGACUGCC [C8G C13U A26C G36U] the self-cleavage was 0.1.
In the case of GGCAGAGGUCAUGACAGCAUCGCAAAGUGAAUGUGGCUAGCCUGCC [C8G A12U C13G G19A G21C G30A C31A A41C], the self-cleavage is reported as 0.01.
With GGCAGAGGUUAACACAGUGUUGCAAAGUGGCUGUGGCUAGACUGCC [C8G C10U C18U G21U] the self-cleavage was 0.05.
GGCAGAGAUCAACACAGCGUGGCAAAGUGCCUGAGGCUAGACUGCC [C8A G30C U34A] showed a self-cleavage of 0.06.
GGCAGAGGUCAACUCAGCGUGGCAAAGUGGCUGUGGCUAGACUUCC [C8G A14U G44U] gave a self-cleavage of 0.02.
Variant GGCAGAGGUCAACACAGCGUGGCAGAUUGGCUGUGGCUAGACUGCC [C8G A25G G27U] has a self-cleavage of 0.02.
Work on GGCAGAGGUCAACACAGCGUGGCCAAGUGGCUGCGGCUAGACUGCC [C8G A24C U34C] yielded a self-cleavage of 0.07.
GGCAGAGGUCAAAACAGCGUGGCAAAGUGGCUGCGGCUAGACUGCC [C8G C13A U34C] showed a self-cleavage of 0.16.
Work on GGCAGAGGUCAACAUAGCGUGGCAAAGUGGCUGUGGCUAGACUGCA [C8G C15U C46A] yielded a self-cleavage of 0.06.
For GGCAGAGGUCAACAUAUCGUGGCAAAGUGGCUGUGGCUAGACUGCC [C8G C15U G17U], the self-cleavage was 0.02.
GGCAGAGAACAACACAGAGUGUCAAAGUUCCUGUGGCUAGACUUCC [C8A U9A C18A G22U G29U G30C G44U] showed a self-cleavage of 0.18.
In the case of GGCAGAGGUCAUCACACCGUGGCAAAGUGGCUGUGGCUAGACUGCC [C8G A12U G17C], the self-cleavage is reported as 0.05.
For GGCAGAGGUCAACACUGCGUGGCAAAGUGGCUGUGGCUAGACUCCC [C8G A16U G44C], the self-cleavage was 0.03.
GGCAGAGGUCAACAAAUCGUCGCAAAGUGGCUGUGGCUAUACUGCC [C8G C15A G17U G21C G40U] gave a self-cleavage of 0.02.
With GGCAGAGAGCAACAUAGCUUGGCAAAGUGGCUGUGGCUAGACUGCC [C8A U9G C15U G19U] the self-cleavage was 0.06.
In the case of GGCAGAGGUCAACACAGCGUGGCAAGGUGGGUGUGGCUAGACUGCC [C8G A26G C31G], the self-cleavage is reported as 0.04.
With GGCAGAGGUCAACACUGAGUGGCCAAGUGGCUGUGGCUAGACUGCC [C8G A16U C18A A24C] the self-cleavage was 0.
GGCAGAGGUCAACACUGCGUGGCAAAGUGUCUGUGGCUAGACUGCC [C8G A16U G30U] gave a self-cleavage of 0.05.
In the case of GGCAGAGGUCGACACAUAGUGGCAAAGUGGCUGUGGCUAGACUGCC [C8G A11G G17U C18A], the self-cleavage is reported as 0.01.
Variant GGCAGAGGUCAACACAGCGUGGCAUAGUGGCUGUGGCUAGACCGCC [C8G A25U U43C] has a self-cleavage of 0.01.
Variant GGCAGAGAUCAACACAGCGUGGCAAAGUGGCUGUGGCUACACUACC [C8A G40C G44A] has a self-cleavage of 0.2.
For GGCAGAGGUGAACACAGCGUAGGAUAGUGGAGGUGGCUAGACUGCC [C8G C10G G21A C23G A25U C31A U32G], the self-cleavage was 0.02.
For GGCAGAGGUCAACAAAGCGUGGCAAACUGGCUGUGGCUAUACUGCC [C8G C15A G27C G40U], the self-cleavage was 0.02.
Variant GGCAGAGAUCAACACAGCGUGGCAAAGUGGCUGUCGCAAGACAGCC [C8A G35C U38A U43A] has a self-cleavage of 0.15.
In the case of GGCAGAGGUCAACACAGCGUGGCACUAUGGCUGUGGCUAGACUGCC [C8G A25C A26U G27A], the self-cleavage is reported as 0.01.
GGCAGAGGUCAGUACAGCGUGGCAAAGUUGCUGUGGCUAGACUGCC [C8G A12G C13U G29U] gave a self-cleavage of 0.
GGCAGAGGUCAACACGGCGUGCCAAAGUUGCUGUGGCUAGACCGCC [C8G A16G G22C G29U U43C] gave a self-cleavage of 0.01.
GGCAGAGGUCAUCACAGCUUGGCAAAGUGGCUGUGGCUAGACUGCC [C8G A12U G19U] showed a self-cleavage of 0.1.
With GGCAGAGAACAACACAGAGUGGCAAUGUGGCUGUGGCUAGACUGAC [C8A U9A C18A A26U C45A] the self-cleavage was 0.36.
Variant GGCAGAGGUCCCCACAGAGUGGCAAAGUGGCUGUGGCUACUCUACC [C8G A11C A12C C18A G40C A41U G44A] has a self-cleavage of 0.01.
In the case of GGCAGAGGUUAACAUAACGUGGCAACGUGGCUGUGGCUAGACUGCC [C8G C10U C15U G17A A26C], the self-cleavage is reported as 0.02.
For GGCAGAGAGCAACACAGCGUGGCGAAGUGGCUGCGGCUAGACUGCC [C8A U9G A24G U34C], the self-cleavage was 0.03.
With GGCAGAGAUCAACACAGCGCGGCAAAUUGGCUGUGGCUAGACUGCC [C8A U20C G27U] the self-cleavage was 0.11.
GGCAGAGGUCCACACAGCGUGGAAAAGUGGCUGUGGCUAGACUGCC [C8G A11C C23A] gave a self-cleavage of 0.02.
